Source: PMC4336329 (PLoS ONE, 2015)
About 14,000 (4.5%) of roughly 310,000 compounds showed an effect of 50% or more. The effect is printed as a negative number. Some of the results follow.

The compounds below were run against human ether-à-go-go-related gene (hERG) potassium channel (human, UniProt Q12809) (assay: primary screen, population patch clamp on CHO cells stably expressing hERG).
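Also: peak tail current of the secondary pulse compared with the same well before compound.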

Chain of human ether-à-go-go-related gene (hERG) potassium channel (Q12809 whole entry, looked up): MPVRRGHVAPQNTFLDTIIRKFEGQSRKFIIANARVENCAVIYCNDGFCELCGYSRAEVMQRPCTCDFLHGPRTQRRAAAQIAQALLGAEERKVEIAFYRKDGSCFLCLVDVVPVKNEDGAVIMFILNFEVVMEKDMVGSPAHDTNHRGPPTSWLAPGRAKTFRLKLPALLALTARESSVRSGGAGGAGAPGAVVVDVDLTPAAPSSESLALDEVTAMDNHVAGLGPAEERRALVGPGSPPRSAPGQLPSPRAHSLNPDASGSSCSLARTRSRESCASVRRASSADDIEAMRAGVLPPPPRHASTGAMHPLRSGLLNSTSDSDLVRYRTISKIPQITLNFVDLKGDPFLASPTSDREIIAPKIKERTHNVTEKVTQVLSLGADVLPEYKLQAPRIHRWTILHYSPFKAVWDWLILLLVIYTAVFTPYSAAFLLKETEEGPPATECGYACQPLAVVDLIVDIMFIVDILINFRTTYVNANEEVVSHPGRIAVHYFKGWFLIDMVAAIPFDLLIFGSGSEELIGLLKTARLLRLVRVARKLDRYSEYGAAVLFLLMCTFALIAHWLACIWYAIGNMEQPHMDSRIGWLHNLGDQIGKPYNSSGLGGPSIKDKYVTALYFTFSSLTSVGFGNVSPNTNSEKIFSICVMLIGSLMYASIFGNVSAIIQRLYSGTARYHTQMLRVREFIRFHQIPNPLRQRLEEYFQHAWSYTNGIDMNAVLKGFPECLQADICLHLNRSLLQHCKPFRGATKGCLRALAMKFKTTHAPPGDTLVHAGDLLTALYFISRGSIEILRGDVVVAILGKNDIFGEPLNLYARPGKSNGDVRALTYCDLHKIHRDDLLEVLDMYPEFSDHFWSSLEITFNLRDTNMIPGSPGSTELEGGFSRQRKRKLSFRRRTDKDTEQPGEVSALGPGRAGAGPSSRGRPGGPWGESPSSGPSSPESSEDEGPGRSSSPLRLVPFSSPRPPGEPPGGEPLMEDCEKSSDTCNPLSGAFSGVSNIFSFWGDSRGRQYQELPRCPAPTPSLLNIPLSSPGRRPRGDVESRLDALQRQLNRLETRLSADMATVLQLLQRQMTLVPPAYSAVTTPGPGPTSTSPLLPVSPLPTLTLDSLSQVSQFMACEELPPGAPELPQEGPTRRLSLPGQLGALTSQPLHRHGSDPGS

| Compound | hERG current change (%, negative = inhibition) at 10uM [%] |
| --- | --- |
| O=C(OCC(=O)N1CCN(S(=O)(=O)c2ccc(Cl)cc2)CC1)C1CCC1 | 11.8 |
| Cc1oc(S(=O)(=O)N2CCCC2)cc1C(=O)Nc1ccccc1 | 7.38 |
| C[N+]1(C)CCN(c2ccccc2)CC1.[I-] | 14.2 |
| CCCn1nnc(NC(=O)Cc2ccccc2)n1 | 7.77 |
| Cc1cccc(N(C(=O)CCC(=O)Nc2cc(C)on2)C(C(=O)NC2CCCC2)c2ccncc2)c1 (centres unmarked) | 18.7 |
| COc1cccc(C(=O)NC2CC3CCC(C2)N3Cc2ccccc2)c1 (centres unmarked) | -28.7 |
| COc1cccc(NC(=O)CC2S/C(=N\S(=O)(=O)c3ccccc3)N(c3ccccc3)C2=O)c1 (centres unmarked) | -4.09 |
| Cc1nc2ccccc2c(=O)n1NC(=O)c1cccc([N+](=O)[O-])c1 | 6.56 |
| COc1ccc(C2C(C#N)=C(N)N3C(=C2C#N)Sc2ccccc23)cc1 (centres unmarked) | 8.81 |
| CCOC(=O)C1=C(N)Oc2cc(O)ccc2C1c1cccc(Cl)c1 (centres unmarked) | -2.49 |
| COc1ccc(-c2noc(-c3ccoc3C)n2)cc1OC | 17.9 |
| Cc1ccc(NC(=O)CCN2CCN(CCO)CC2)cc1Br.Cl | -15.7 |
| CC(=O)N1CCOc2ccc(S(=O)(=O)N3CCC(C)CC3)cc21 | 6.53 |
| CC1CC(C)CN(S(=O)(=O)c2ccc(NC(=O)CCN3C(=O)C4CC=CCC4C3=O)cc2)C1 (centres unmarked) | 4.22 |
| CC1=CC(C)(C)N(C(=O)CSc2nnc(C)s2)c2ccc(C)cc21 | -6.67 |
| CCOc1ccccc1CN1CCC(n2nccc2NC(=O)CCCc2ccccc2)CC1 | -83.7 |
| CCN(CC)C(=O)CSc1nnc(-c2ccccc2)n1N | 21.4 |
| COc1ccccc1Nc1nc(N)nc(CSC(=S)N2CCC(C)CC2)n1 | -13.7 |
| CC(=O)Oc1ccc2cc(-c3nc4ccccc4n3C)c(=O)oc2c1 | 0.963 |
| Cn1c(=O)c2c(nc(CN3CCc4ccccc4C3)n2Cc2ccc(Cl)cc2)n(C)c1=O | 0.125 |
| COc1ccccc1NC(=O)CCCCC(=O)Nc1ccccc1OC | 7.88 |
| O=c1[nH]c2ccccc2cc1CN(Cc1ccco1)S(=O)(=O)c1ccc(F)cc1 | 18 |

| Compound | hERG current change (%, negative = inhibition) at 10uM [%] |
| --- | --- |
| COC(=O)C1=C(c2ccc(S(C)(=O)=O)cc2)C[C@@H]2CC[C@H]1N2C(=O)NC(C)C | -49.8 |
| O=C(Nc1cc(Cl)ccc1N1CCOCC1)c1ccc(N2CCCCC2)c([N+](=O)[O-])c1 | -6.63 |
| NC(=O)NC(CC(=O)NNC(=O)c1ccccn1)c1ccc(Cl)cc1 (centres unmarked) | 11.7 |
| O=C(NN1C(=O)C2C3CCC(O3)C2C1=O)c1ccc(Cl)cc1 (centres unmarked) | 6.47 |
| c1ccc(-c2nc(NC3CCCC3)c3ccccc3n2)cc1 | 20.5 |
| COc1ccc(C(=O)C(C)OC(=O)CCN2C(=O)C3CC=CCC3C2=O)cc1 (centres unmarked) | -6.72 |
| CC1CCN(C(=O)CCC(=O)Nc2nnc(C(F)(F)F)s2)CC1 | 30 |
| O=C(N/C(=C/c1cccc([N+](=O)[O-])c1)C(=O)N1CCOCC1)c1ccccc1Br | -7.05 |
| COc1ccc(/C=N/n2c(SC)nnc(C(C)(C)C)c2=O)c(OC)c1 | 6.24 |
| N=c1c(C(=O)NCc2ccccc2)cc2c(=O)n3ccccc3nc2n1CCCN1CCOCC1 | -78.6 |
| COc1ccc(NC(=O)C2CCN(Cc3cnn(-c4ccccc4)c3-n3cccc3)CC2)cc1OC | -14 |
| Cc1oc(-c2ccccc2)nc1Cn1cccc1C1=NC(c2ccccc2)CO1 (centres unmarked) | 5.29 |
| COc1ccc(CCN=C(N)NS(=O)(=O)c2ccccc2)cc1 | 9.06 |
| C#CCOCCOCCOCCNc1nc(N2CCN(C(=O)[C@H]([C@@H](C)CC)n3cc(CCC[NH+]=C(N)N)nn3)CC2)nc(N2CCN(C(=O)[C@H](CCCC[NH3+])n3cc(CC(C)O)nn3)CC2)n1.[Cl-] (some centres unmarked) | 14.1 |
| CCn1cc(C(=O)O)c(=O)c2cnc(N3CCN(C(=S)NC(=O)c4ccccc4Cl)CC3)nc21 | 20.7 |
| CC1C(c2cccs2)=[N+]([O-])C(C)(C(=O)c2ccc(Cl)cc2)N1O (centres unmarked) | 7.52 |
| O=C(CSc1nnc(CNC(=O)c2ccccc2)o1)Nc1ccc2c(c1)OCCO2 | 11.9 |
| Oc1ccc(-c2csc(Nc3cccnc3)n2)cc1 | -2.34 |
| O=C(O)c1cccc2c1C(=O)c1ccc(-c3ccc(Cl)c(C(F)(F)F)c3)cc1S2(=O)=O | 7.61 |
| COc1ccc(CNC(=O)C(C)N2C(=O)NC(c3ccccc3)(c3ccccc3)C2=O)cc1 (centres unmarked) | -86.5 |
| CC(=O)N(CCCN(C)C)CCC(C)CCC=C(C)C (centres unmarked) | -36.3 |
| CCCCNC(=O)N1CCN(c2ccnc3cc(Cl)ccc23)CC1 | -78.2 |

| Compound | hERG current change (%, negative = inhibition) at 10uM [%] |
| --- | --- |
| CN1CC(=O)N(CC(=O)Nc2ccc(SC(F)F)cc2)C1=O | -23.5 |
| COc1ccc(-n2nc(C(=O)NCC(=O)NC(C)C)c3ccccc3c2=O)cc1OC | 14.9 |
| NS(=O)(=O)c1ccc(NC(=O)COC(=O)COc2ccc3ccccc3c2)cc1 | 22 |
| Cc1cc(C)cc(NC(=O)NC2CCCCCCC2)c1 | -5.07 |
| O=C1CC(N2CCN(C/C=C/c3ccccc3)CC2)C(=O)N1Cc1cccs1 (centres unmarked) | -74.8 |
| O=C(CC1C(=O)NCCN1Cc1cccc(Oc2ccccc2)c1)NCc1cccnc1 (centres unmarked) | -10.6 |
| COC(=O)c1ccc(C(=O)OC)c(NC(=S)N2CCN(C)CC2)c1 | 20.4 |
| CCn1nc(NC(=O)C2CCCO2)c2cc3cccc(C)c3nc21 (centres unmarked) | 9.1 |
| COC(=O)c1cc(OC)c(OC)cc1NC(=O)C(C)Sc1ccc(C)cc1 (centres unmarked) | -2.69 |
| Cc1cccc(OCC(=O)NC2CCCc3ccccc32)c1C (centres unmarked) | 17.9 |
| CN(C)S(=O)(=O)c1ccc(NC(=O)CSc2nnnn2C)cc1 | 12.1 |
| CCCCn1c(O)c(/C=C2\C=NN=C2c2ccccc2)sc1=S | 2.83 |
| Cc1cc(NCCO)c2ccccc2n1.Cl | 6.81 |
| O=C(c1ccccc1)N1CCN(c2ccc(Cl)cc2)CC1 | -25.1 |
| Cc1ccc2[nH]c(=O)c(CN(CC3CCCO3)S(=O)(=O)c3cccc4nsnc34)cc2c1 (centres unmarked) | -23.3 |
| CCc1c(C)nc2c(C#N)c(C)[nH]n2c1=O | 5.77 |
| COc1cccc(NC(=O)C2CC(=O)N/C(=N/NC(=O)c3ccc(C)cc3)S2)c1 (centres unmarked) | 7.13 |
| CCC(C(=O)O/N=C(\N)c1ccccc1)c1ccccc1 (centres unmarked) | 8.05 |
| CC(C)Nc1ccc(Cl)cc1[N+](=O)[O-] | 14.3 |
| Cc1ccc(NC(=O)c2cccnc2)cc1S(=O)(=O)N1CCOCC1 | -4.35 |
| Cc1cccc(C(=O)OC(C)C(=O)Nc2ccc(S(=O)(=O)N3CCCC3)cc2)c1O (centres unmarked) | 15.7 |
| CSCC[C@H](NC(=O)Nc1ccc(OC(F)(F)F)cc1)C(=O)O | 2.27 |

| Compound | hERG current change (%, negative = inhibition) at 10uM [%] |
| --- | --- |
| Cc1cccc(C)c1NC(=O)CSc1nnc([C@H](C)NC(=O)OC(C)(C)C)o1 | -3.35 |
| COc1ccc(C)cc1NC(=O)Nc1ccc2c(c1)CCC2 | 17.5 |
| COc1cccc(NS(=O)(=O)NC(=O)c2cn(C)c3ccccc23)c1 | 20 |
| CC(=O)NN1C(=O)c2ccc(Oc3ccc4c(c3)C(=O)N(NC(C)=O)C4=O)cc2C1=O | 8.92 |
| CC(C)COC(=O)c1nnsc1NC(=O)Nc1ccccc1 | 5.29 |
| CC1CC(C)CN(CC(=O)c2c[nH]c3ccccc23)C1 (centres unmarked) | -5.76 |
| N#Cc1ccc(-n2nnc3ccccc3c2=O)c([N+](=O)[O-])c1 | 24.6 |
| S=C(NCCc1ccccc1)NCc1cccc(Cl)c1 | 6.88 |
| Cc1ccc(NC(=O)C2CCCN(c3nccc(C)n3)C2)c(C)c1 (centres unmarked) | 5.08 |
| O=C(N/N=C/c1ccc2c(c1)OCO2)c1ccc2ccccc2n1 | 10.1 |
| COc1ccc(N2CCN(C(=O)c3oc4ccccc4c3C)CC2)cc1 | -31.9 |
| Cn1c(=O)[nH]c(=O)c2c1nc(Br)n2Cc1ccccc1Cl | 5 |
| CN(Cc1cccc(-n2cccn2)c1)Cc1cn(C)nc1-c1ccccc1F | 15.9 |
| CCOC(=O)CCN(Cc1ccccc1)S(=O)(=O)c1csc(C(N)=O)c1 | -22.4 |
| CN(C)c1cc(-c2ccc(Br)cc2)oc(=O)c1Cl | 15.5 |
| Cc1ccnc(NS(=O)(=O)c2ccc(Oc3ccccc3)cc2)c1 | 19.3 |
| Cc1nnc(SCc2nc3ccccc3c(=O)n2-c2ccccc2Cl)n1N | -12.5 |
| CNC(=O)c1nnc(Cc2ccc(F)cc2)o1 | 9.51 |
| Clc1cccc(-c2cc3nc4c(c(N5CCOCC5)n3n2)CCCC4)c1 | -6.06 |
| O=C(NCCO)c1nc2ccccc2s1 | 13.3 |
